The text below walks through data of ChEMBL document CHEMBL5291721, “A preclinical secondary pharmacology resource illuminates target-adverse drug reaction associations of marketed drugs” (Nat Commun, 2023).

Test [1] has as its target T1, Alpha-2A adrenergic receptor (Homo sapiens, UniProt P08913).
T1 sequence (P08913 whole entry): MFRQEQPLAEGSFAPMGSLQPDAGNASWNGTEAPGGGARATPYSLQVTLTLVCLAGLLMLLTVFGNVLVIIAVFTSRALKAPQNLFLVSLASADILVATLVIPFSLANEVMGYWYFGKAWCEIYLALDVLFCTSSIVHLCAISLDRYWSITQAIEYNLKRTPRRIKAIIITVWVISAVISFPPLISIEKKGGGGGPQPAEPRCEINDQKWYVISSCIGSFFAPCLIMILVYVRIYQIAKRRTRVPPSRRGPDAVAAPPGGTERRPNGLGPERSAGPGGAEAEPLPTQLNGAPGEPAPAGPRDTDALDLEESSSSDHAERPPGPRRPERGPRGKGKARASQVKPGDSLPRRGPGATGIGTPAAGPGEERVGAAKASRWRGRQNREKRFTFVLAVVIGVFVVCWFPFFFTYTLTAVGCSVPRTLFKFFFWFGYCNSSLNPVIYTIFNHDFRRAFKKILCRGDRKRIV

Test [2] deals with Gastrin/cholecystokinin type B receptor (Homo sapiens, UniProt P32239).
Gastrin/cholecystokinin type B receptor, sequence (P32239 whole entry): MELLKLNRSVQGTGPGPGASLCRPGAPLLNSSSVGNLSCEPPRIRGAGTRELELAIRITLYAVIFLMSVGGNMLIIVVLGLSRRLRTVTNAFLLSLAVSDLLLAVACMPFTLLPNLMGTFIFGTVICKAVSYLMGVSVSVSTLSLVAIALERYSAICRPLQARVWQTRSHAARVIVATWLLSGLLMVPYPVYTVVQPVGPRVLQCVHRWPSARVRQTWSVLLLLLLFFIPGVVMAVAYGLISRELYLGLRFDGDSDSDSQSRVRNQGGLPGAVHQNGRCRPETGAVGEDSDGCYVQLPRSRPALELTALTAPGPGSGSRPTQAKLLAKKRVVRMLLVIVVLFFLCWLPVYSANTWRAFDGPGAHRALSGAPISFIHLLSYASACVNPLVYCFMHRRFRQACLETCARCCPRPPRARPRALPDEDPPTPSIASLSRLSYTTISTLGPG
Test [3] deals with 3',5'-cyclic-AMP phosphodiesterase 4D (Homo sapiens, UniProt Q08499). In kind it is functional.
Test [4] has as its target T1, Alpha-2A adrenergic receptor. In kind it is functional, cell-based.
In test [5] the target is Vasopressin V2 receptor (Homo sapiens, UniProt P30518).
In test [6] the target is T2, Muscarinic acetylcholine receptor M2 (Homo sapiens, UniProt P08172). It is filed as functional, cell-based.
T2 sequence (P08172 whole entry): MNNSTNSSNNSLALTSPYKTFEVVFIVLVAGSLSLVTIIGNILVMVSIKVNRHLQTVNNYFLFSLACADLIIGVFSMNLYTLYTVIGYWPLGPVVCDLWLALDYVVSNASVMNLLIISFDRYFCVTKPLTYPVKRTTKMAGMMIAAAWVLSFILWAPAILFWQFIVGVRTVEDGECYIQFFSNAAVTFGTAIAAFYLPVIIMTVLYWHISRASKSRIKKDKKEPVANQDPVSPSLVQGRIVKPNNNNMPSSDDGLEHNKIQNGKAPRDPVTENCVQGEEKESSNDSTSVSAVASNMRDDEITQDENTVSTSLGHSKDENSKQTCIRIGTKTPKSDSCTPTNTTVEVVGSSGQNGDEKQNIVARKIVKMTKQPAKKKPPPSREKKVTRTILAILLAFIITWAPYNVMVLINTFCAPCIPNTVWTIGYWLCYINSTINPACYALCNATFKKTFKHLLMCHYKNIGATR
Test [7] concerns the target Beta-2 adrenergic receptor (Homo sapiens, UniProt P07550).
Test [8] addresses Acetylcholinesterase (Homo sapiens, UniProt P22303). In kind it is functional.
Test [9] has as its target 3',5'-cyclic-AMP phosphodiesterase 4A (Homo sapiens, UniProt P27815). In kind it is functional.
The target of test [10] is Bile salt export pump (Homo sapiens, UniProt O95342). In kind it is functional.
For test [11], the target named is Adenosine receptor A3 (Homo sapiens, UniProt P0DMS8).
Adenosine receptor A3, sequence (P0DMS8 whole entry): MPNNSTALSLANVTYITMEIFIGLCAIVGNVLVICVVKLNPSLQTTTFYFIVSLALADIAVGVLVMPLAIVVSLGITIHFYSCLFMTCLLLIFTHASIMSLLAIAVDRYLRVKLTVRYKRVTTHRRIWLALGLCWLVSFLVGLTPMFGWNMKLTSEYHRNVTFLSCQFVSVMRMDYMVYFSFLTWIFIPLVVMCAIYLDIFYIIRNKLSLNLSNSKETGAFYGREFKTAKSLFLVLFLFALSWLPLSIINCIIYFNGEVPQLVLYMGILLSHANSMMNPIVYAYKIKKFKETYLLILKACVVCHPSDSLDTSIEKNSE
The target in test [12] is T3, Thromboxane A2 receptor (Homo sapiens, UniProt P21731).
T3 sequence (P21731 whole entry): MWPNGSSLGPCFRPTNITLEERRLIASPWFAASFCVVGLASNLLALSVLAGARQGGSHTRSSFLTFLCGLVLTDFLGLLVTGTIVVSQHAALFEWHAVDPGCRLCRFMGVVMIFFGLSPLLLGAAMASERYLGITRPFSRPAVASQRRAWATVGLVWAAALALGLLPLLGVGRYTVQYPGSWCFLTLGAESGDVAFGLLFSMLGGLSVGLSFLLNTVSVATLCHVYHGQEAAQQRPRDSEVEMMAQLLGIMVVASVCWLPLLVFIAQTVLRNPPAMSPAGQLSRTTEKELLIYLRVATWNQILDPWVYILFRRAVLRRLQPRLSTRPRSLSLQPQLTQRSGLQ
It is filed as functional, cell-based.

Test [13] addresses Motilin receptor (Homo sapiens, UniProt O43193).
Test [14] concerns the target Glucocorticoid receptor (Homo sapiens, UniProt P04150).
Test [15] has as its target Type-1 angiotensin II receptor (Homo sapiens, UniProt P30556).
For test [16], the target named is Melanocortin receptor 3 (Homo sapiens, UniProt P41968).
Melanocortin receptor 3, sequence (P41968 whole entry): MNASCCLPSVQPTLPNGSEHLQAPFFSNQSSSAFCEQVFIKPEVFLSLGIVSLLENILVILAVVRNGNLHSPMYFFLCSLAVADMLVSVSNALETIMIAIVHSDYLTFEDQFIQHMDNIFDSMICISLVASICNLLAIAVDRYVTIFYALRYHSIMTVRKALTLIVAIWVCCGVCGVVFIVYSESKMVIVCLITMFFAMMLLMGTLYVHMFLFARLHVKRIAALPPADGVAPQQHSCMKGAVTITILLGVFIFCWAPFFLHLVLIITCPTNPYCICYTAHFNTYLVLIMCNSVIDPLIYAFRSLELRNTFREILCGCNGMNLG
Test [17] has as its target Synaptic vesicular amine transporter (Rattus norvegicus, UniProt Q01827). It is filed as functional.
The target in test [18] is T3, Thromboxane A2 receptor. It is filed as functional, cell-based. The source holds these as a separate data set.
The target of test [19] is T3, Thromboxane A2 receptor.
Test [20] addresses Growth hormone secretagogue receptor type 1 (Homo sapiens, UniProt Q92847).
In test [21] the target is Neuropeptide Y receptor type 1 (Homo sapiens, UniProt P25929).
Neuropeptide Y receptor type 1, sequence (P25929 whole entry): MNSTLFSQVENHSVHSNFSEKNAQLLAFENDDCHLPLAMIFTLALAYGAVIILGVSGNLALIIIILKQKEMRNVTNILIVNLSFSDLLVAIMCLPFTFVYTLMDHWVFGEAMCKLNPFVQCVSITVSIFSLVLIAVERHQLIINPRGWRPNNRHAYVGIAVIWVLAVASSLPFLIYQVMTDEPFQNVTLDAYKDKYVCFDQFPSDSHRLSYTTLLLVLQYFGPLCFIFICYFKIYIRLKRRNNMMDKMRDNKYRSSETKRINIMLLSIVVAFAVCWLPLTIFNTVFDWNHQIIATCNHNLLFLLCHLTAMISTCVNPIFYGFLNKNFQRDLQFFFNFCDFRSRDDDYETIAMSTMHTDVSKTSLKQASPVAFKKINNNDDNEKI
For test [22], the target named is Vasopressin V1a receptor (Homo sapiens, UniProt P37288).
Vasopressin V1a receptor, sequence (P37288 whole entry): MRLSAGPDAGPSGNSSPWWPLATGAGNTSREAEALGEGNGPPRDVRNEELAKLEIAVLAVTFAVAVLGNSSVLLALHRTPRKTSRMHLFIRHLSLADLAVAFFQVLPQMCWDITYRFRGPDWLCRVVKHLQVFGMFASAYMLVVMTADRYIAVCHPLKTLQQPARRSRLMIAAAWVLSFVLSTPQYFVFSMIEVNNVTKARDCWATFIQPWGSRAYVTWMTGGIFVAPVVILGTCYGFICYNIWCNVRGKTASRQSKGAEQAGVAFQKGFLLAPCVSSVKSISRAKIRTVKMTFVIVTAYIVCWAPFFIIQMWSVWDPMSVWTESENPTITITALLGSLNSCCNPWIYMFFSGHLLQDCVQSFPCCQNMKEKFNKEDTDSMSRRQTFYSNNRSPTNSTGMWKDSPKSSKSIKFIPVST
In test [23] the target is T2, Muscarinic acetylcholine receptor M2.
Test [24] concerns the target B2 bradykinin receptor (Homo sapiens, UniProt P30411).
The target in test [25] is T1, Alpha-2A adrenergic receptor. In kind it is functional, cell-based. This is another data set of the same source.
Test [26] concerns the target Glutamate receptor ionotropic, NMDA 1 (Rattus norvegicus, UniProt P35439).
In test [27] the target is Kappa-type opioid receptor (Homo sapiens, UniProt P41145).
Test [28] has as its target Progesterone receptor (Homo sapiens, UniProt P06401). It is filed as functional.
The target in test [29] is Mu-type opioid receptor (Homo sapiens, UniProt P35372).
Also: assay procedure not described here.

Glucocorticoid receptor, sequence (P04150 whole entry): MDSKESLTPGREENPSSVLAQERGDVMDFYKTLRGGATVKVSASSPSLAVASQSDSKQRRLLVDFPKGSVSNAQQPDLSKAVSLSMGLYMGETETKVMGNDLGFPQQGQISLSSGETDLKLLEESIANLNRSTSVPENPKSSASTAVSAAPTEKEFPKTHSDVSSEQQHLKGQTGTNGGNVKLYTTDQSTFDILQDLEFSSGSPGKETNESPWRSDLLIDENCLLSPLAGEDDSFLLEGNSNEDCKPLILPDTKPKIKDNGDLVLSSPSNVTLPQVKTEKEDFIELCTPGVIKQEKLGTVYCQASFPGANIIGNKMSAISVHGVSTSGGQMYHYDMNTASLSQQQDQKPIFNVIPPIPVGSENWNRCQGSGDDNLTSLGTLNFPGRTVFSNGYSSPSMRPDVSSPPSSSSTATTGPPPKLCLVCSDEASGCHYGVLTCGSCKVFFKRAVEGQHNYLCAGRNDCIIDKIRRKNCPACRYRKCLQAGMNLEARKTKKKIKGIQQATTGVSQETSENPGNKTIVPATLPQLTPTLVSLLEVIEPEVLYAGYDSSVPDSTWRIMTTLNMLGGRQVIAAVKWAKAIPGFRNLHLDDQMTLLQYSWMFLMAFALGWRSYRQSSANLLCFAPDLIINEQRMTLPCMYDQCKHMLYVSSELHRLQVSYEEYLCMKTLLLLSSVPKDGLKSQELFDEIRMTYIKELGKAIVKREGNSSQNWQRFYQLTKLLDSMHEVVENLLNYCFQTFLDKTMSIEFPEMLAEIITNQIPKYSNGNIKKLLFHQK
Progesterone receptor, sequence (P06401 whole entry): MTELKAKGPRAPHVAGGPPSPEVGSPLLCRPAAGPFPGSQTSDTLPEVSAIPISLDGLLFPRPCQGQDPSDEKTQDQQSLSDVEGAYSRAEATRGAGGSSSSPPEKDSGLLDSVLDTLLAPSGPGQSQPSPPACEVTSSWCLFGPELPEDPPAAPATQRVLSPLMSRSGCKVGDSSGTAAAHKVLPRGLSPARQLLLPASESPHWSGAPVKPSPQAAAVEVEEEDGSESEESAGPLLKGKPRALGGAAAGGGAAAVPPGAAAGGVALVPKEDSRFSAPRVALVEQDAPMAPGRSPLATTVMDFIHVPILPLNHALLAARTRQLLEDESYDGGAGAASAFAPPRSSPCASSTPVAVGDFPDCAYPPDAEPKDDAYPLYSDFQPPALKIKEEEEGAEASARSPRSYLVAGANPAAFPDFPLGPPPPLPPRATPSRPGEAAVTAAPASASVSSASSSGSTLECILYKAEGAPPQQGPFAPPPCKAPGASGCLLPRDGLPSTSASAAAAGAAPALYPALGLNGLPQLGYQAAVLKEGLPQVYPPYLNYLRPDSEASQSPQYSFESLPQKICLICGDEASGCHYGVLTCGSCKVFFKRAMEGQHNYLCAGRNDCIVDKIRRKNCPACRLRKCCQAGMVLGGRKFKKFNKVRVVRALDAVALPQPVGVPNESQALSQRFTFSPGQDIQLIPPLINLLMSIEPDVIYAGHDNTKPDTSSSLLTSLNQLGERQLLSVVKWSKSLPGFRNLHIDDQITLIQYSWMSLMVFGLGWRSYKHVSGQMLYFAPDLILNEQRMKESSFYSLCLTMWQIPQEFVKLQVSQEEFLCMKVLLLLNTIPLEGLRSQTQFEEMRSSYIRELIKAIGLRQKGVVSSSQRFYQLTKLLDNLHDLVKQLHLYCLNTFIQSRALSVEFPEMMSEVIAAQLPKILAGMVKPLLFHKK
Growth hormone secretagogue receptor type 1, sequence (Q92847 whole entry): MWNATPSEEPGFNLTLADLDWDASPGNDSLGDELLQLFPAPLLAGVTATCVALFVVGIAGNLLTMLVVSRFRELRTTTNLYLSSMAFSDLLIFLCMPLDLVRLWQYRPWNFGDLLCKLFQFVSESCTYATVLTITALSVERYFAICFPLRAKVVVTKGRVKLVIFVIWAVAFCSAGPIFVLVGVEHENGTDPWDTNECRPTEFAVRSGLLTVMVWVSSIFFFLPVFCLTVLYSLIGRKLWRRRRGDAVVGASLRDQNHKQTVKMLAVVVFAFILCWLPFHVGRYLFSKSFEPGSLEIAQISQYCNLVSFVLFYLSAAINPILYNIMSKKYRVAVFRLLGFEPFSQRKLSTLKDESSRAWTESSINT
Beta-2 adrenergic receptor, sequence (P07550 whole entry): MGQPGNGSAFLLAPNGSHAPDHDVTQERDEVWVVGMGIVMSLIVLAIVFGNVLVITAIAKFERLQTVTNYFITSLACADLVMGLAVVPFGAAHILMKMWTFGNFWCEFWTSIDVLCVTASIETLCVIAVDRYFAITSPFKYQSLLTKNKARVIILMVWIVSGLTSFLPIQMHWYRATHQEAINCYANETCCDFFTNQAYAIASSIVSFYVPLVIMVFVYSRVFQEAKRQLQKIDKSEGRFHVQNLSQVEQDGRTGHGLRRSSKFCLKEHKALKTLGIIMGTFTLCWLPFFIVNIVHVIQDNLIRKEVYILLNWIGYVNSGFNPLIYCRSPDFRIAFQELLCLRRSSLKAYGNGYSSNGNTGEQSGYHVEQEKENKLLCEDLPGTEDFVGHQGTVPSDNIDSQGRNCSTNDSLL

With `CC(C)(C)CC(C)(C)c1ccc(OCCOCC[N+](C)(C)Cc2ccccc2)cc1` [BENZETHONIUM], the AC50 (in general, the concentration at which the activity in the assay is half-maximal) was 10.6 µM in test [1]; greater than 10 µM in [2]; 29 µM in test [3]; greater than 10 µM in test [4]; 14 µM in [5]; 18 µM in test [6]. The AC50 was 27 µM in [7]; 2.33 µM in [8]; 14.3 µM in test [9]; 29 µM in [10]; 3.9 µM in test [11]; greater than 10 µM in test [12]. The AC50 was 2.7 µM in test [13]; 14 µM in test [14]; 25 µM in [15]; 7.5 µM in test [16]; 0.18 µM in [17]; greater than 3 µM in test [18]. Further, the AC50 is greater than 10 µM in [19]; 6.4 µM in test [20]; 15 µM in [21]; 15 µM in [22]; 1.1 µM in test [23]; 30 µM in [24]. In addition, in test [25], the AC50 was determined as 11 µM.

Regarding `CN(C)CCCN1c2ccccc2CCc2ccc(Cl)cc21` [CLOMIPRAMINE], the AC50 in [26] was greater than 10 µM.

In the case of `Clc1ccc(COC(Cn2ccnc2)c2ccc(Cl)cc2Cl)cc1` (stereo not given) [ECONAZOLE], the AC50 came out at 2.33 µM in test [27], 11.7 µM in [28] and 10.9 µM in test [14].

Take `CCC1(c2cccc(O)c2)CCCCN(C)C1` (stereo not given) [MEPTAZINOL]: in test [29], the AC50 came out at 0.0826 µM.
